Assay results: PubChem BioAssay AID686970 (National Center for Advancing Translational Sciences (NCATS), 2013)
About 6,000 (1.7%) of roughly 360,000 compounds were called active. The shares of active, inactive and inconclusive entries below differ from those in the screen. Calls follow the shape of the dose curve; as a rule, active = well fitted cell-killing curve with a large enough effect; inconclusive = small, poorly fitted or top-dose-only effect, or effect the other way; inactive = flat fitted curve, though single readings scatter. Potencies of inconclusive entries are left out as doubtful fits.

Test: qHTS for induction of synthetic lethality in tumor cells producing 2HG: qHTS for the HT-1080-NT fibrosarcoma cell line;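 also: NT is the 2HG producing partner of a matched IDH1 knockdown line; nearly all actives have a fitted effect of over 55% in size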;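 as to activity, negative = less viability: 0% = DMSO-treated cells and -100% = media-only wells without cells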
Conditions: HT-1080-NT fibrosarcoma viability, CellTiter-Glo ATP luminescence, 48 h; activity, negative = less viability: at 46.1 µM (top of the series) unless noted
Procedure, shortened: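 HT-1080-NT fibrosarcoma cells (2HG-overproducing), 750 cells/well in RPMI with 5% FBS, dosed after 2 h and incubated 48 h at 37C. CellTiter-Glo luminescence normalized to DMSO and no-cell wells; concentration-response curves fitted and classed.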
Potency is read from the fitted curve at half-maximal effect; tags tell the direction and shape of the fitted curve.

SMILES | Potency | activity, negative = less viability
C[C@H]1CN([C@@H](C)CO)C(=O)Cc2cc(NC(=O)C3CC3)ccc2O[C@H]1CN(C)Cc1ccc(Oc2ccccc2)cc1 | inconclusive [cytotoxic, single point] | 
c1ccc(-c2nc(-c3ccccn3)nc(-c3ccccn3)n2)nc1 | inconclusive [cytotoxic, single point] | 
CSc1nc(C)c(CCOC(=O)c2ccccc2)c(=O)[nH]1 | inconclusive [rising, full curve] | 
OCCN1CCN(c2nc(-c3ccccc3)nc3c2oc2ccccc23)CC1 | active: 23.1 µM | 
CCOc1ccc2nc(-c3ccccc3)[nH]c2c1 | active: 8.2 µM | 
COC(=O)c1ccc(COc2ccccc2/C=N/NS(=O)(=O)c2ccccc2)cc1 | inconclusive [cytotoxic, single point] | 
COc1ccc(OCCN2CCC(C(=O)NC(c3ccc(Cl)cc3)c3ncccc3C)CC2)cc1 (stereo not drawn) | inconclusive [cytotoxic, single point] | 
CC(=O)N1CCN(CC(=O)Nc2ccc3c(c2)CCC3)CC1 | inactive | 
CCCc1cc(=O)n2[nH]c(C)cc2n1 | inactive | 
Cc1cccc2sc(NC(=O)CSCc3ccccc3)nc12 | inconclusive [cytotoxic, single point] | 
COc1cccc(C(C(=O)NCc2ccco2)N(C(=O)Cn2nnc3ccccc32)C2CC2)c1OC (stereo not drawn) | inactive | 
CCOc1ccc(NC(=O)CCCNC(=O)Cn2cnc3sc(C)c(C)c3c2=O)cc1 | inconclusive [cytotoxic, single point] | 
O=C(O)c1cnn(-c2ccccc2)c1C(F)(F)F | inactive | 
Cc1noc(C)c1COC(=O)c1ccc(F)c(S(=O)(=O)N2CCCCC2)c1 | inactive | 
O=C1c2cc(O)c(O)cc2OC(c2ccc(O)c(O)c2)C1O (stereo not drawn) | inactive | 
FC(F)(F)c1ccc(C2[C@H]3CN(Cc4cccnc4)[C@H](c4ccccc4)C34CC2(c2cccnc2)C4)cc1 (stereo partly drawn) | inconclusive [cytotoxic, single point] | 
O=C(c1nnsc1S(=O)(=O)c1ccc(Cl)cc1)N1CCOCC1 | active: 14.6 µM | 
CSc1nc(-c2ccc(C)cc2)nc(C(Cl)Cl)n1 |  | inconclusive: -0.428% [cytotoxic]
O=C(CCc1n[nH]c(=O)[nH]c1=O)Nc1cccc([N+](=O)[O-])c1 | inactive | 
CCN(CC)C(=O)c1cccc(-c2csc(C(C)(O)c3ccc(F)c(F)c3)n2)c1 (stereo not drawn) | inconclusive [cytotoxic, partial curve] | 
CCOC(=O)Cc1cc(=O)[nH]c(Nc2nc3ccccc3o2)n1 | inactive | 
O=CNc1cc(-c2ccsc2)cn2c(-c3ccccc3)cnc12 | inconclusive [cytotoxic, single point] | 
CN1CCCN(S(=O)(=O)c2ccccc2)c2nc3ccccc3nc21 | inactive | 
O=C(COC(=O)CCC(=O)c1ccc(Cl)cc1)NC1CC1 | inactive | 
Cc1cccc(-n2c(SCC(=O)c3c(N)n(C4CC4)c(=O)[nH]c3=O)nnc2N2CCOCC2)c1 | inactive | 

SMILES | Potency | activity, negative = less viability
CNC[C@@H](CC1CCCCC1)NC[C@H](CC(C)C)NCCc1cccc(C(F)(F)F)c1 | active: 23.1 µM | 
Cc1ccc(SC[C@H](Cc2ccccc2)N2CCN(CC(C)C)CCC2=O)cc1 | inactive | 
O=C(CCl)Nc1c(C(=O)Nc2ccc3c(c2)OCCO3)oc2ccccc12 | inconclusive [cytotoxic, single point] | 
Cc1cc(=O)n2nc(N3CCC(C(=O)NCc4cccc(Cl)c4)CC3)sc2n1 | inconclusive [cytotoxic, single point] | 
Cc1ccccc1-c1csc(C(O)(c2ccccc2)C(F)(F)F)n1 (stereo not drawn) | inconclusive [cytotoxic, single point] | 
CSc1ccc(NC(=O)Nc2cccn(Cc3ccccc3)c2=O)cc1 | inconclusive [cytotoxic, partial curve] | 
Cc1cc(Sc2nc(N)ncc2[N+](=O)[O-])ncn1 | active: 5.8 µM | 
COc1ccc(C(=O)C=Cc2ccc(OCc3ccccc3)c(OC)c2)cc1OC | inconclusive [cytotoxic, single point] | 
NS(=O)(=O)c1ccc(NC(=O)c2ccc(OCC3CCCO3)cc2)cc1 (stereo not drawn) | inconclusive [cytotoxic, single point] | 
Cc1cccc(COC[C@H](Cc2ccccc2)N2CCN(C(=O)c3cccc(C)c3)CCC2=O)c1 | inconclusive [cytotoxic, single point] | 
COc1ccc2c(c1OC)C[N+]1([O-])CCc3cc4c(cc3C1C2)OCO4 (stereo not drawn) | inactive | 
CCN(CC)c1ccc(Nc2cc3n(c(=O)n2)CCc2cc(OC)c(OC)cc2-3)cc1 | active: 25.9 µM | 
CC(=O)N1CCc2cc(NC(=O)C3(C)CCN3Cc3ccccc3OC(F)F)ccc21 (stereo not drawn) | inconclusive [cytotoxic, full curve] | 
CC(C)(C)C(=O)O/N=C(\N)c1ccc([N+](=O)[O-])s1 | inconclusive [cytotoxic, single point] | 
CC1=C(C(=O)N(C(C)C)C(C)C)CC(CC(=O)NCc2cccc3ccccc23)C(=O)N1CCC1=CCCCC1 (stereo not drawn) | inconclusive [cytotoxic, single point] | 
COc1ccc(-n2c(SC(C)C(=O)Nc3ncc(Cl)cc3Cl)nc3ccccc32)cc1 (stereo not drawn) | inconclusive [cytotoxic, partial curve] | 
COc1cccc(NC(=O)N(C)C[C@H]2OCc3cn(nn3)CCCC(=O)N([C@@H](C)CO)C[C@@H]2C)c1 | inactive | 
O=C(Nc1nnc(-c2ccccn2)o1)c1ccc(Br)cc1 | inconclusive [cytotoxic, single point] | 
COC(=O)c1c(SCc2cccc3ccccc23)nc(=O)[nH]c1C | inconclusive [cytotoxic, single point] | 
Cc1c(Cc2ccccc2)c(=O)oc2cc(OCC(N)=O)ccc12 | inconclusive [rising, single point] | 
CCCCc1c(-c2ccc(Br)cc2)ncn1CCc1ccccc1OC | active: 9.2 µM | 
CCNc1ncnc2c1cnn2C1CCCCO1 (stereo not drawn) | inactive | 
O=C1NC(Cc2ccc(O)cc2)c2nc3cc(F)c(F)cc3c(=O)n2-c2cc3ccccc3cc21 (stereo not drawn) | inconclusive [cytotoxic, single point] | 
COc1ccc(-c2csc(N(CCCN(C)C)C(=O)c3ccccc3Cl)n2)cc1 | active: 20.6 µM | 
CC(Oc1ccc(Br)cc1)C(=O)N1CCC(C(N)=O)CC1 (stereo not drawn) | inactive | 

SMILES | Potency | activity, negative = less viability
Cc1sc2ncn(CC(=O)Nc3ccccc3F)c(=O)c2c1-c1ccccc1 | inconclusive [cytotoxic, single point] | 
CN(Cc1ccc(Br)cc1)CC(O)COc1cccc(Br)c1 (stereo not drawn) | inconclusive [cytotoxic, single point] | 
Cc1cc(C)n(S(=O)(=O)/C=C/c2ccccc2)n1 | active: 2.82 µM | 
O=C(/C=C/c1ccc(Cl)cc1)NC(=S)Nc1ccc(N2CCOCC2)c(Cl)c1 | inconclusive [cytotoxic, single point] | 
CCCNC(=O)C12CCC(C)(C(=O)C1Br)C2(C)C (stereo not drawn) | inactive | 
CC(=O)OCC(=O)C1(O)CCC2C3CC(C)C4=CC(=O)CCC4(C)C3C(O)CC21C (stereo not drawn) | inconclusive [rising, full curve, poor fit] | 
O=C(O)CCN(Cc1ccccc1)S(=O)(=O)c1ccc(Cl)cc1F | inactive | 
Cn1ccnc1C(=O)C1CCCN(Cc2cn[nH]c2-c2ccc(-c3ccccc3)cc2)C1 (stereo not drawn) | inconclusive [cytotoxic, partial curve] | 
NC(=O)CCn1ccc2ccccc21 | inactive | 
O=C(O)CSCC(=O)NCc1c(Cl)cccc1Oc1ccccc1 | inactive | 
Cc1ccc(C(C)C)c(OCCNC(=O)c2cncc(Br)c2)c1 | inactive | 
CC(C)CCNC(=O)COc1ccc(C(=O)c2ccccc2)cc1 | inconclusive [cytotoxic, single point] | 
COc1ccccc1NC(=O)C1=C(C)N(c2ccccc2)C(=S)NC1c1cccc(C(F)(F)F)c1 (stereo not drawn) | inconclusive [cytotoxic, single point] | 
CC(C(=O)O)n1nnc2ccccc21 (stereo not drawn) | inconclusive [rising, partial curve] | 
COc1ccc(OC)c(NC(=O)Nc2nc(C(N)C(C)C)cs2)c1 (stereo not drawn) | inconclusive [cytotoxic, single point] | 
CC(=O)c1c(C)n(CC(=O)NCc2ccc3c(c2)OCO3)c2ccccc12 | inconclusive [cytotoxic, single point] | 
CCOc1cc(S(=O)(=O)Nc2cc(C)cc(C)c2)ccc1Cl | inconclusive [cytotoxic, single point] | 
O=C(NCc1ccco1)c1noc2c1CCCC2 | inconclusive [cytotoxic, single point] | 
CCC(=O)c1ccc(O)cc1 | inconclusive [rising, partial curve, poor fit] | 
CC12CC3(C)CC(C)(C1)CC(C(=O)NC1=NCCS1)(C2)C3 | inactive | 
NC(=O)CSc1nnc2ccc(-c3ccc(Cl)cc3)nn12 | inconclusive [rising, partial curve] | 
CCc1nc(N2CCCCC2)c2oc3ccccc3c2n1 | inconclusive [cytotoxic, single point] | 
FC(F)(F)c1ccccc1Cc1c(C2CCCCC2)nc2ccc(Br)cn12 | inconclusive [cytotoxic, single point] | 
